The campaign covered roughly 120,000 compounds. About 5,300 (4.4%) were called active. The inconclusive results got no clear call from the source; some entries with a clear call stand among them for comparison. Calls follow the shape of the dose curve; as a rule, active = well fitted inhibition curve with a large enough effect; inconclusive = small, poorly fitted or top-dose-only effect; inactive = no such curve, though single readings can be large or run the other way. A potency beside an inconclusive call is a rough fit, not a confirmed value.
Assay: qHTS Primary assay for Inhibitors of Plasmodium falciparum Dd2 growth in vitro; also: nearly all actives have a fitted effect of over 65% in size;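 as to activity, negative = inhibition: plate controls were DMSO vehicle for no effect and reference drug for full effect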
Conditions: P. falciparum Dd2 growth, SYBR Green, 72 h; activity, negative = inhibition: at 28.9 µM (top of the series) unless noted; series mostly up to 28.9 µM
Summary of the method: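 Readout: SYBR Green fluorescence, 485 nm excitation, 535 nm emission, after ~16 h lysis at 37C. Before that, Dd2-infected red cells (2.5% hematocrit) grew 72 h with compound, 29 uM top final concentration.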
Potency is read from the fitted curve at half-maximal effect; tags tell the direction and shape of the fitted curve.

Row | SMILES | Potency | activity, negative = inhibition | outcome
1 | CN(C)CCNC(=O)c1ccc2c(c1)N(Cc1c(F)cccc1Cl)C(=O)c1ccccc1S2 | inconclusive: 0.794 µM [inhibitor, partial curve] | – | –
2 | Cn1nccc1CN1CCC(N2CCNC2=O)CC1 | – | inactive: 8.18% [at 44.1 µM] | –
3 | Cc1nnc(N2CCCC(C(=O)NCCc3ccccc3)C2)c2nn(-c3ccccc3)c(C)c12 (centres undefined) | inconclusive: 6.31 µM [inhibitor, partial curve] | – | –
4 | Cc1ccn2cc(-c3ccc(C)c(NS(=O)(=O)c4ccc(Cl)cc4)c3)nc2c1 | inconclusive: 17.8 µM [inhibitor, single point] | – | –
5 | Cc1ccc(S(=O)(=O)c2nc(-c3cccc(Cl)c3)oc2NCc2ccccc2)cc1 | inconclusive: 10 µM [inhibitor, single point] | – | –
6 | Cc1cc(C)c(NC(=O)Cn2c(=O)n(Cc3ccc(C(=O)NCc4ccco4)cc3)c(=O)c3sccc32)c(C)c1 | inconclusive: 11.2 µM [inhibitor, single point] | – | –
7 | COc1ccc(-c2cc(C[C@@H]3CC[C@H](O)[C@@H](CN(Cc4cccc(OC)c4)Cc4cccc(OC)c4)O3)no2)cc1 | inconclusive: 3.16 µM [inhibitor, partial curve, poor fit] | – | –
8 | O=C(N1CC=C(c2ccc(F)cc2)CC1)C12CNCC1CNC2 (centres undefined) | – | – | inactive
9 | COC(=O)C1=C(C)N=C2SC=C(CC(=O)NCC3CCCO3)N2C1c1cc(OC)ccc1OC (centres undefined) | inconclusive: 0.447 µM [inhibitor, partial curve, poor fit] | – | –
10 | CCN(Cc1cccc2cnccc12)CC1CCCN(CCc2cccc(F)c2)C1 (centres undefined) | active: 2.24 µM | – | –
11 | Cc1ccc(CSc2nc3cccnc3n2Cc2ccc(C(=O)NCCc3cccs3)cc2)cc1 | inconclusive: 7.08 µM [inhibitor, partial curve] | – | –
12 | CN1C(=O)N(CCc2ccccc2)C(=O)C12CCN(Cc1cccn1-c1ccccn1)CC2 | inconclusive: 20 µM [inhibitor, single point] | – | –
13 | CC1CCN(S(=O)(=O)c2cc(C(=O)N3CCN(c4ccccc4F)CC3)n(C)c2)CC1 | inconclusive: 10 µM [inhibitor, single point] | – | –
14 | Cc1oc2c(c1C(=O)N(C)C)CN(C(=O)c1ccnn1C)CC2 | inconclusive: 11.2 µM [inhibitor, partial curve] | – | –
15 | COc1ccc(N(CC(=O)NCCc2ccc(Cl)cc2)S(=O)(=O)c2c(C)nn(C)c2C)cc1 | inconclusive: 7.08 µM [inhibitor, partial curve] | – | –
16 | CCOC(=O)C1CCN(C(=O)c2nn(-c3ccc(OC)cc3)c(=O)c3c2c2ccccc2n3C)CC1 | inconclusive: 10 µM [inhibitor, single point] | – | –
17 | COc1ccc(-n2c(/C=C\c3ccccc3F)nc3ccccc3c2=O)c(OC)c1 | inconclusive: 12.6 µM [inhibitor, partial curve, poor fit] | – | –
18 | COc1ccc(C2CC(=O)N(CC(=O)Nc3cccc(C)c3C)c3ccccc3S2)cc1OC (centres undefined) | inconclusive: 7.94 µM [inhibitor, partial curve, poor fit] | – | –
19 | COc1cccc(CCC(=O)N2CCCN(c3cc(-c4ccc(C)c(C)c4)[nH]n3)CC2)c1 | – | inactive: -6.48% | –
20 | CCOCC(=O)N1c2ccccc2CC1c1noc(C(C)C)n1 (centres undefined) | inconclusive: 7.94 µM [inhibitor, partial curve, poor fit] | – | –
21 | CN(C)CCNC(=O)C(C)(C)Oc1nn(CC2CCOCC2)c2ccccc12 | inconclusive: 5.62 µM [inhibitor, single point] | – | –
22 | c1cc2c(cc1CN1CCOCC1)CNCCO2 | active: 7.94 µM | – | –

Row | SMILES | Potency | activity, negative = inhibition | outcome
23 | CCN1CCN(c2nc3c(s2)CN(C(=O)Cc2cccnc2)CC3)CC1 | inconclusive: 0.447 µM [inhibitor, full curve, poor fit] | – | –
24 | CC(C)n1nc(OC(C)(C)C(=O)NCCc2cccnc2)c2cc(CN3CCOCC3)ccc21 | inconclusive: 1.41 µM [inhibitor, partial curve] | – | –
25 | CCN1CCN(Cc2c(O)ccc3cc(-c4ccc(OC)cc4)c(=O)oc23)CC1 | active: 5.62 µM | – | –
26 | Cc1noc2c(-c3cccnc3NC3CCC(O)CC3)cc(-c3ccccc3)nc12 (centres undefined) | inconclusive: 31.6 µM [inhibitor, partial curve, poor fit] | – | –
27 | COc1ccc(C2c3cccn3CCN2S(=O)(=O)c2ccc([N+](=O)[O-])cc2)cc1 (centres undefined) | inconclusive: 10 µM [inhibitor, single point] | – | –
28 | COc1ccc(C)cc1Nc1nc(N)c2cc(OC)c(OC)cc2n1 | active: 2.82 µM | – | –
29 | CCc1cccc(NC(=O)C2CCN(S(=O)(=O)c3cccc(-c4noc(C)n4)c3)CC2)c1 | inconclusive: 17.8 µM [inhibitor, single point] | – | –
30 | CCN1C(=O)C2(CCN(C(=O)CC(C)C)CC2)c2ccccc21 | – | inactive: 11.1% | –
31 | CCN1CCN(c2cc(C)c3cc(NC(=O)c4ccc(OC)c(OC)c4)ccc3n2)CC1 | active: 2.82 µM | – | –
32 | CCc1ccc(CN2CCCC(CNC(=O)c3cccc(OC)c3OC)C2)o1 (centres undefined) | inconclusive: 11.2 µM [inhibitor, single point] | – | –
33 | COc1ccc(C(=O)N2CCC[C@H](n3c(=O)n(CC4CC4)c4cccnc43)C2)cc1F | active: 12.6 µM | – | –
34 | CCCCn1c(SCC(=O)NCc2ccc(C)cc2)nc2c(sc3ccccc32)c1=O | – | inactive: 46% | –
35 | CCC1CN(C(=O)C2CCN(S(=O)(=O)c3c(C)noc3/C=C/c3ccccc3F)CC2)c2cc(C)ccc2O1 (centres undefined) | inconclusive: 11.2 µM [inhibitor, single point] | – | –
36 | Oc1ccc(-c2nc(C3CC3)nc3c2CCN(Cc2cccnc2)CC3)cc1 | inconclusive: 20 µM [inhibitor, single point] | – | –
37 | Cc1ccc(C(=O)N2CCC3(CC2)CNC(=O)c2ccccc2O3)cc1 | – | – | inactive
38 | CC(C)Cc1nc(CN(C)C(=O)c2cccc(CCC(C)(C)O)c2)no1 | – | – | inactive
39 | Cn1cnc(S(=O)(=O)N2CCC(N3C(=O)C4(CCCC4)C3c3ccccc3)CC2)c1 (centres undefined) | – | inactive: -11.1% | –
40 | COC(=O)C1=C(C)N=C2SC=C(CC(=O)N3CCC(C)CC3)N2C1c1cccc(OC)c1 (centres undefined) | – | inactive: -20.8% | –
41 | COc1cc(OC)cc(N2C(=O)[C@@H]3C[C@@H](NC(=O)c4ccc(SC)cc4OC)CCN3C2=O)c1 | inconclusive: 8.91 µM [inhibitor, partial curve] | – | –
42 | COCc1ccc2c(c1)c(OC(C)(C)C(=O)Nc1ccn(C)n1)nn2Cc1ccccc1 | inconclusive: 3.55 µM [inhibitor, partial curve] | – | –
43 | O=C(Nc1nccs1)[C@H]1CN2CCC1C[C@@H]2Cn1cc(CC2CCCCC2)nn1 (some centres undefined) | inconclusive: 25.1 µM [inhibitor, single point] | – | –
44 | O=C(N[C@@H]1CCC[C@@H]1C(=O)NCCc1ccc(Cl)cc1)c1ccncc1 | inconclusive: 11.2 µM [inhibitor, partial curve, poor fit] | – | –

Row | SMILES | Potency | activity, negative = inhibition | outcome
45 | O=C1c2cnc(-c3cccc(CO)c3)nc2OCCN1Cc1ccccc1 | inconclusive: 11.2 µM [inhibitor, partial curve, poor fit] | – | –
46 | O=C(NCCC1=CCCCC1)c1c(OCC2CC2)cc(=O)n2c1CCCCC2 | inconclusive: 15.8 µM [inhibitor, single point] | – | –
47 | COc1ccc(-c2cc(C[C@H]3CNCC[C@H]3CC(=O)NCc3ccccc3)no2)cc1 | inconclusive: 31.6 µM [inhibitor, single point] | – | –
48 | COc1ccc(-c2cc(C[C@@H]3CC[C@@H]4OC(=O)NC[C@H]4O3)no2)cc1 | inconclusive: 35.5 µM [inhibitor, partial curve, poor fit] | – | –
49 | COCCC1(CO)CCCN(c2ncc(F)c(N3CCCC3)n2)C1 (centres undefined) | inconclusive: 17.8 µM [inhibitor, single point] | – | –
50 | O=C(NCc1ccc(F)cc1)c1nc(-c2ccc(F)cc2)c2cnccn12 | inconclusive: 2.82 µM [inhibitor, single point] | – | –
51 | Cn1c(=O)c2c(-c3ccc(Br)cc3)n(CCc3ccccc3)cc2n(C)c1=O | inconclusive: 17.8 µM [inhibitor, single point] | – | –
52 | CSCC(=O)N1CC[C@H](NC(=O)NC2CCCCC2)[C@H]1C(=O)N[C@H](Cc1ccccc1)C(N)=O | – | inactive: 4.31% | –
53 | Cc1ccc(NC(=O)c2oc3ccc(S(=O)(=O)N4CCCCC4)cc3c2C)cc1Cl | inconclusive: 17.8 µM [inhibitor, single point] | – | –
54 | COC(=O)C1=C(C)N(Cc2cccc(F)c2)C(=O)CC1c1ccccc1Cl (centres undefined) | – | – | inactive
55 | O=C(CSc1nnc(-c2ccccc2)c(-c2ccccc2)n1)NC1CCCC1 | – | inactive: 19.5% | –
56 | Cc1ccc(S(=O)(=O)N2CC[C@H](c3nnc(-c4ccccc4)o3)C2)cc1 | inconclusive: 31.6 µM [inhibitor, single point] | – | –
57 | O=C1CC2(CCN(Cc3cccc4ccccc34)CC2)Oc2ccccc21 | inconclusive: 2 µM [inhibitor, partial curve, poor fit] | – | –
58 | O=C1CN(C(=O)c2cccc(-n3cnnc3)c2)CCN1Cc1cccc(F)c1 | – | inactive: -11.9% | –
59 | COCC(=O)N1CC[C@H](c2nnc(C(C)(C)C)o2)C1 | – | inactive: 13.3% [at 44.1 µM] | –
60 | CC(C)c1ccc(CN2CCc3c(n(Cc4ccccc4)n(-c4ccccc4)c3=O)C2)cc1 | inconclusive: 3.98 µM [inhibitor, partial curve, poor fit] | – | –
61 | O=C(C1CC1)N1CCC(Cc2nc(C3CC3)n[nH]2)CC1 | – | inactive: 13.8% | –
62 | Cn1cccc1C(=O)N1CCCCCCNC(=O)CC1 | – | inactive: 18.3% | –
63 | O=C(CC[C@H]1NC(=O)c2ccccc2NC1=O)NCCc1nc(-c2ccccc2)cs1 | – | – | inactive
64 | Cc1ccc(C)c(-c2cc3c(=O)n(CCNC(=O)c4ccncc4)ccn3n2)c1 | inconclusive: 0.0708 µM [inhibitor, full curve, poor fit] | – | –

— PubChem BioAssay AID1347417 (National Center for Advancing Translational Sciences (NCATS), 2020)
